Reference: publication PMC4336329 (PLoS ONE, 2015)
Out of some 310,000 compounds screened, about 14,000 (4.5%) showed an effect of 50% or more. Effects have a minus sign here. Some of the results follow.

Molecular target: human ether-à-go-go-related gene (hERG) potassium channel (human, UniProt Q12809)
Assay: primary screen, population patch clamp on CHO cells stably expressing hERG
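Note: peak tail current of the secondary pulse compared with the same well before compound.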

Sequence of human ether-à-go-go-related gene (hERG) potassium channel (Q12809 whole entry, looked up): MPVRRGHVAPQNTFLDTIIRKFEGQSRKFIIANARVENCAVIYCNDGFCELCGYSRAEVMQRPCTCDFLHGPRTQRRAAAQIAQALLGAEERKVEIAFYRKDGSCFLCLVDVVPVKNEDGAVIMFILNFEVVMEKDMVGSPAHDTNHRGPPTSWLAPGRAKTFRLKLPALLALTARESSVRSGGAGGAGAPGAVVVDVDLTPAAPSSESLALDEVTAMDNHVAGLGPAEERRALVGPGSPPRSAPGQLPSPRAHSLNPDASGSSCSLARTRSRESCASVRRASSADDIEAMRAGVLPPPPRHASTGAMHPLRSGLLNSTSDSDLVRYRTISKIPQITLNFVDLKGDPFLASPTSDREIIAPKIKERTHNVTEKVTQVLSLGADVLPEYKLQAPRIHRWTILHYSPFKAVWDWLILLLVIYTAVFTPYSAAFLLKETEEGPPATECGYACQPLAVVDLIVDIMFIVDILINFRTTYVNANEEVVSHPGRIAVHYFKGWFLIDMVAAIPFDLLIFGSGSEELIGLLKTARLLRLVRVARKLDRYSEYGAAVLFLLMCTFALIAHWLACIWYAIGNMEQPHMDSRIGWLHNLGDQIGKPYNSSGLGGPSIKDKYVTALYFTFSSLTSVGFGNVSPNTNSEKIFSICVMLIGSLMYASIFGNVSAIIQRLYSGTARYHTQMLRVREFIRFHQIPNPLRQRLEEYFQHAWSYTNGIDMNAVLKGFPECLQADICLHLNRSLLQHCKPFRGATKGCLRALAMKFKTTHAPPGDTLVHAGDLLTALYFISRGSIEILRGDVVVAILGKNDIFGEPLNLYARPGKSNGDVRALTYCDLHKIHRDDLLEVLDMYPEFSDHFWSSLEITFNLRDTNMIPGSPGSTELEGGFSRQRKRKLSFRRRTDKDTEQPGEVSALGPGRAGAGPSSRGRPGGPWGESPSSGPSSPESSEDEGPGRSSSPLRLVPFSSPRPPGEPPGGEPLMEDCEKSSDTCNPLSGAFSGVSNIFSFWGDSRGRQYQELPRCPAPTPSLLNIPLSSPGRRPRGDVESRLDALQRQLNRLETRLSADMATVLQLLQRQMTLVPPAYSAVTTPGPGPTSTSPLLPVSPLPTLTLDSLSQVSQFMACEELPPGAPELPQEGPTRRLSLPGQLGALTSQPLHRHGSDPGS

Compared with CC1(C)CC(NC(=O)C(F)(F)F)CC(C)(C)N1OC(=O)c1ccco1, CN(C(=O)COC(=O)C1CSC2(C)CCC(=O)N12)c1ccccc1 (stereo not shown) is lower in “hERG current change (%, negative = inhibition) at 10uM” value: 1.13% for the first, -3.89% for the second.

Compared with COc1ccc(-n2c(O)c(C=NCCN3CCN(C(C)=O)CC3)c(=O)[nH]c2=S)cc1, COc1ccc(-n2c3c(c(=O)[nH]c2=O)C(NS(=O)(=O)c2ccc(Cl)cc2)(C(F)(F)F)C(=O)N3)cc1 (stereo not shown) is lower in “hERG current change (%, negative = inhibition) at 10uM” value: 20.4% for the first, -2.76% for the second.

Compared with COc1cc(CNn2nnnc2N)ccc1OCC(=O)NC(C)(C)C, COc1ccc(C(C)(C)C)cc1NC(=O)c1ccoc1C is lower in “hERG current change (%, negative = inhibition) at 10uM” value: 4% for the first, -19.8% for the second.

First: Cc1ccccc1NC(=O)CCC(=O)N/N=C/c1cc([N+](=O)[O-])ccc1O
Second: O=C(COc1ccc([N+](=O)[O-])cc1)Nc1ccc(C(=O)Nc2ccccc2C(=O)O)cc1
The “hERG current change (%, negative = inhibition) at 10uM” value of the first is higher: -17.5% for the first, -30.2% for the second.

Compared with CCOc1cccc2cc(C(N)=O)c(=NCc3ccccc3)oc12, CCOc1ncccc1C(=O)NCc1ccccc1 is higher in “hERG current change (%, negative = inhibition) at 10uM” value: -8.35% for the first, 9.58% for the second.

First: O=C(CCCn1cc([N+](=O)[O-])cn1)NC1CCCCCC1
Second: Cc1ccc(-n2ncc3c2CC(C)(C)CC3NC(=O)CCN2CCCCC2=O)cc1 (stereo not shown)
The “hERG current change (%, negative = inhibition) at 10uM” value of the first is lower: -3.97% for the first, 3.16% for the second.

Compared with CCN(Cc1ccccc1)S(=O)(=O)c1csc(C(N)=O)c1, CCN(CC)S(=O)(=O)c1ccc(N2CCCC2)c(NC(=O)c2ccncc2)c1 is lower in “hERG current change (%, negative = inhibition) at 10uM” value: -15.6% for the first, -22.6% for the second.

Compared with CC(C)CC1NC(=O)N(Cc2nc3ccccc3s2)C1=O (stereo not shown), O=C(CSc1ccc(Cl)cc1)N1CCC(c2nc3ccccc3s2)CC1 is lower in “hERG current change (%, negative = inhibition) at 10uM” value: -32.5% for the first, -59.7% for the second.

First: O=C(NCc1ccco1)c1ccc(Cn2c(=O)c3ccccc3n(Cc3cccc(F)c3)c2=O)cc1
Second: O=C(COc1ccc(Cl)cc1)NCc1nnc2c3ccccc3c(-c3ccccc3)nn12
The “hERG current change (%, negative = inhibition) at 10uM” value of the first is higher: 8.71% for the first, -66.9% for the second.

First: COc1cccc(NC(=O)CN(C)C(=O)c2cc(-c3ccccc3)nc3ccccc23)c1
Second: CCOC(=O)C(Oc1ccc2c(-c3ccccc3)cc(=O)oc2c1)c1ccccc1 (stereo not shown)
The “hERG current change (%, negative = inhibition) at 10uM” value of the first is higher: 12.7% for the first, -32.6% for the second.

Compared with Cc1cc(N/C(=N\S(=O)(=O)c2ccc(Cl)cc2)c2ccc(F)cc2)no1, NS(=O)(=O)c1ccc(NCc2cc(Cl)ccc2OCc2ccc(F)cc2)cc1 is higher in “hERG current change (%, negative = inhibition) at 10uM” value: -25.5% for the first, 3.36% for the second.

Going from COc1cc(SC)ccc1C(=O)NCCN1CCOCC1 to Cc1ccc(Cc2cnc(NC(=O)CN3CCOCC3)s2)cc1Cl, the “hERG current change (%, negative = inhibition) at 10uM” value falls from 7.73% to -23.9%.

Going from Cc1ccc2nc(Nc3ccccc3O)nc(-c3ccccc3)c2c1 to O=c1sc(Nc2ccccc2)nc2ccccc12, the “hERG current change (%, negative = inhibition) at 10uM” value rises from 14.3% to 23.5%.

Compared with Cc1cc(C)c(NC(=S)N(CCc2ccncc2)C(C)C)c(C)c1, Cc1cc(=O)oc2cc(NC(=O)c3ccnn3C)ccc12 is higher in “hERG current change (%, negative = inhibition) at 10uM” value: -8.82% for the first, 23.5% for the second.

Compared with CC(C)CN1CCN(C(=O)CCc2nnc(Cc3c[nH]c4ccccc34)o2)[C@@H](C)C1=O, CC1=CCC2C(=O)N(CCc3c[nH]c4ccccc34)C(=O)C2C1 (stereo not shown) is lower in “hERG current change (%, negative = inhibition) at 10uM” value: 14.6% for the first, -9.31% for the second.

First: CCCCS(=O)(=O)Nc1ccc2cn[nH]c2c1
Second: COc1ccc(NC(=O)c2cccc(S(=O)(=O)Nc3ccc(Br)cc3)c2)cn1
The “hERG current change (%, negative = inhibition) at 10uM” value of the first is lower: -5.57% for the first, -2.46% for the second.

First: CN(C)CCNC(=S)Nc1ccc(Cl)cc1
Second: O=C(COC(=O)CNC(=O)c1ccccc1)Nc1ccccc1Cl
The “hERG current change (%, negative = inhibition) at 10uM” value of the first is lower: 0.163% for the first, 13.3% for the second.

Compared with CCc1ccccc1N(C)S(=O)(=O)c1cc(-c2cc(C)no2)ccc1OC, Cc1cc(C[n+]2cc(Cl)ccc2N)c2ncccc2c1.[Br-] is lower in “hERG current change (%, negative = inhibition) at 10uM” value: 17.1% for the first, -48.1% for the second.

Compared with CC(C)N(C(=O)/C=C/c1cccc([N+](=O)[O-])c1)C(C)C, CCCS(=O)(=O)N1CCN(Cc2ccc([N+](=O)[O-])cc2)CC1.O=C(O)C(=O)O is lower in “hERG current change (%, negative = inhibition) at 10uM” value: -13.8% for the first, -51.9% for the second.

First: CCC(=O)N1CCc2cc(Br)cc(S(=O)(=O)NCc3ccco3)c21
Second: CCOc1ccc(C(=O)N2CCCC(c3nc(-c4cccs4)no3)C2)cc1 (stereo not shown)
The “hERG current change (%, negative = inhibition) at 10uM” value of the first is higher: -33.7% for the first, -46.9% for the second.

Going from Cn1c(=O)c2c(nc(Br)n2CCCc2ccccc2)n(C)c1=O to Cn1c(N)c(C(=O)COC(=O)CCC2CCCCC2)c(=O)n(C)c1=O, the “hERG current change (%, negative = inhibition) at 10uM” value falls from -9.05% to -73.6%.

For NC1=NC(=O)/C(=C/c2ccc(Cl)cc2Cl)S1, the “hERG current change (%, negative = inhibition) at 10uM” value was 13.4%.
